Data: PubChem BioAssay AID1963576 (National Center for Advancing Translational Sciences (NCATS), 2024)
Out of some 46,000 compounds screened, about 60 (0.1%) were called active. About 3% were inconclusive and are not listed. The call rests on the fitted dose curve; in most records, active means well fitted inhibition curve with a large enough effect; inconclusive means small, poorly fitted or top-dose-only effect; inactive means no such curve, though single readings can be large or run the other way. This is one part of the list.

Assay: Primary qHTS assay for Inhibitors of ovarian cancer metastasis using an organotypic tumor microenvironment (TME) model. Further: nearly all actives have a fitted effect of over 65% in size.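 On activity change, negative = inhibition: plate controls were DMSO wells for no effect and tomatine positive control wells for full effect.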
Conditions: SKOV3ip1-GFP adhesion/invasion on 3D omental model, fluorescence; series mostly up to 45.8 µM; activity change, negative = inhibition: at the top concentration
Method in brief: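 qHTS, 4-pt dose (0.36-46 umol/L); SKOV3ip1-GFP, 1,200 cells/well, no FBS; primary omental fibroblast/mesothelial co-culture 48 h pre-grown; 2 h RT + 16 h 37 C; PBS wash, 4% PFA; GFP count 488/509 nm.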

Activity change, negative = inhibition, inactive:
COc1cccc(-c2cc(C(=O)Nc3cc(C)nn3-c3ccccc3)no2)c1 -19.9%
CCN(CC)S(=O)(=O)c1nnc(NC(=O)c2ccccc2Cl)s1 4.68%
COc1ccc(NC(=O)Cn2c(=O)n(CC3CCCO3)c(=O)c3ccccc32)c(OC)c1 (stereo not given) 2.77%
COc1cc(OC)cc(C(=O)Nc2ccc3oc(-c4ccccc4C)nc3c2)c1 3.08%
CCC(=O)Nc1ccc(C)cc1-c1nc2ccccc2n(CC(=O)Nc2ccccc2Cl)c1=O -13.6%
COc1ccc(-c2cc(C(F)(F)F)nc(SCC(=O)N(C)Cc3ccccc3)n2)cc1OC -4.62%
CCOc1ccc(CNC(=O)c2ccc3c(c2)nc2n3CCOC2)cc1 7.09%
COc1ccc(N(C(=O)c2ccccc2F)S(=O)(=O)c2ccc3c(c2)n(C)c(=O)n3C)cc1 1.27%
CCN1CCN(CCCNC(=O)c2cc3c(=O)n(CC)c4ccccc4c3s2)CC1 -24.4%
CC(=O)N1CCOc2cc(S(=O)(=O)NCc3ccc(C)cc3)c(C)cc21 -8.84%
Cc1ccc(C)c2sc(NC(=O)c3ccc(S(=O)(=O)N4CCCC4)cc3)nc12 -4.9%
Cc1ccc(NC(=O)c2oc3ccc(S(=O)(=O)N4CCCCC4)cc3c2C)cc1C 0.634%
O=C(c1cc2ccc3cccnc3c2[nH]1)N1CCN(c2cccc(C(F)(F)F)c2)CC1 -3.37%
CCOC(=O)CSc1nc2sc3c(c2c(=O)n1Cc1ccccc1)CCC(C(C)(C)C)C3 (stereo not given) 8.78%
COc1ccc(CNC(=O)c2c(Nc3ccc(OC)cc3OC)sc(C(=O)c3ccc(Cl)cc3)c2N)cc1 6.05%
Cc1ccc(C)c(CN2C(=O)c3ccccc3S(=O)c3ccc(C(=O)N4CCC(C)CC4)cc32)c1 (stereo not given) -3.89%
COc1ccc(CNc2oc(-c3ccc(COc4ccc(Cl)cc4)o3)nc2C#N)cc1 1.29%
CCOC(=O)c1cccc(NC(=O)c2cc(S(=O)(=O)N3CCCCCC3)cn2C)c1 29.2%
COc1ccc2nc(S(=O)Cc3ncc(C)c(OC)c3C)[nH]c2c1 (stereo not given) -16.9%
COc1cc(O)ccc1C1CC(=O)Nc2c1c(=O)nc(SCc1ccccc1C)n2C (stereo not given) 3.36%
CCN1c2ccccc2-c2nc(SCC(=O)Nc3cccc(C(F)(F)F)c3)ncc2S1(=O)=O -3.71%
CCC(C)(C)NS(=O)(=O)c1cc(-c2cc(C)no2)ccc1C -2.44%
COc1ccc(CN(C(=O)c2cc3ccccc3oc2=O)C2CCS(=O)(=O)C2)cc1 (stereo not given) 9.27%
Cc1cc(C)cc(Nc2cc(C(=O)NCCCN(Cc3ccccc3)C(C)C)c3ccccc3n2)c1 -1.76%
CCOc1ccc(CNC(=O)c2cc(=O)[nH]c3ccc(S(=O)(=O)N4CCCCC4)cc23)cc1 6.29%
CC(C)OCCCNC(=O)CCCn1c(=O)[nH]c2ccsc2c1=O 20.6%
CCNC(=O)c1cc2c(-c3cc(OCCN4CCCC4)c(Cl)cc3Cl)nc(N)nc2s1 18.5%
Cc1ccc(CNC(=O)C2CCC(CNS(=O)(=O)c3ccc4c(c3)CCCC(=O)N4)CC2)cc1 (stereo not given) -3.28%
CCOC(=O)c1ccc(NC(=O)CCS(=O)(=O)c2ccc(C)cc2)cc1 2.73%
COc1ccc(NC(=O)CN2CCCN(S(=O)(=O)c3ccc(Br)cc3)CC2)c(OC)c1 9.96%
CC(=O)Nc1ccc(NS(=O)(=O)c2ccc3c(c2)CC(C)N3C(=O)C2CCC2)cc1 (stereo not given) 7.79%
COc1ccc(-c2nc3c4cnn(-c5ccccc5F)c4ncn3n2)cc1 -7.37%
CCN(Cc1ccccc1)C(=O)Cn1c(=O)n(-c2ccc(F)c(Cl)c2)c(=O)c2sc3ccccc3c21 22.3%
COc1ccc(N2CCN(S(=O)(=O)c3csc(C(N)=O)c3)CC2)cc1 12.7%
Cc1cccc(C)c1OCCSc1nc2ccccc2n1CC(=O)O 31.2%
O=C(Nc1ccc(F)cc1F)c1cc2c(=O)n3ccccc3nc2s1 -0.22%
CSc1ccc(CCNC(=O)c2ccc(CS(=O)(=O)c3ccc(Br)cc3)o2)cc1 0.367%
COCCNC(=O)c1cccc(Nc2nc3ccccc3n3nnnc23)c1 -8.55%
CCc1cccc(NC(=O)CCc2nc3cccnc3n2-c2ccccc2)c1 12.8%
Cc1cccc(N2CC(C)Cn3c2nc2c3c(=O)n(CC(=O)O)c(=O)n2C)c1 (stereo not given) 4.95%
Cc1ccc(-n2nc(C)c3c(C(=O)NCc4ccc(F)cc4)cc(C)nc32)cc1 -10.9%
O=c1c2sc3ccccc3c2n(Cc2cccc(C(F)(F)F)c2)c(=O)n1Cc1ccccc1 -7.07%
COc1ccc(NC(=O)CSc2nc(-c3cccs3)cc(C(F)(F)F)c2C#N)cc1 0.163%
COc1ccc(CNC(=O)c2cc3cc(S(=O)(=O)N4CCCCC4)ccc3n2C)c(OC)c1 -7.92%
O=C1N(Cc2cccc(C(F)(F)F)c2)c2ccccc2S(=O)(=O)N1c1cccc(Cl)c1 14.8%
CC1CCc2c(sc(NC(=O)c3ccc(Cl)cc3Cl)c2C#N)C1 (stereo not given) 6.76%
N#Cc1c(C(F)(F)F)cc(-c2cccs2)nc1SCC(=O)Nc1ccc(F)cc1 -22.6%

outcome, inactive:
Cc1c(CNCc2ccc(OC(C)C)cc2)c(C(=O)O)c(C)n1Cc1ccc(Cl)cc1
COc1ccc2c(c1)c1c(c(=O)n(CCc3ccccc3)c(=O)n1Cc1ccccc1)n2C
Cc1cccc(-c2nc(CCNC(=O)c3ccco3)cs2)c1
COC(=O)CC1Oc2ccc(F)cc2-n2cc(-c3ccc(Cl)cc3)nc21 (stereo not given)
O=C(Nc1cccc(-c2nc3ccccc3o2)c1)c1cc([N+](=O)[O-])ccc1N1CCOCC1
CCOc1cc(CNC(=O)c2ccc3c(c2)N(C)C(=O)C2CCCCN32)cc(OCC)c1OCC (stereo not given)
Cc1c(Cl)cccc1N1C(N)=C(C#N)C(c2cc(CN3CCOCC3)cs2)C2=C1CCCC2=O (stereo not given)
COc1ccc(NC(=O)CCc2c(C)nc3c(c2C)c(=O)n(C)c(=O)n3C)cc1OC
CCOC(=O)N1CCc2c(sc(NCc3ccc(N(C)C)cc3)c2C(=O)Nc2ccc(OC)cc2)C1
Cc1cc(F)ccc1NC(=O)CN(C)S(=O)(=O)c1ccc(C(=O)N2CCOCC2)s1
CCOc1ccc(NC(=O)c2c(NCc3sccc3C)sc3c2CCCCC3)cc1
COc1ccc(CNC(=O)c2ccc3c(c2)N(Cc2ccccc2F)C(=O)c2ccccc2S3(=O)=O)cc1
CCN(CC)C(=O)CSc1nc2cc3c(cc2c(=O)n1CCCCCC(=O)NCCc1ccc(OC)c(OC)c1)OCO3
